Experimental data as given in US5936101A, “Process for the preparation of 1,2-dioxetane compounds and novel sulfur-substituted 1,2-dioxetane compounds as intermediates” (Lumigen, Inc., priority 1997, dated 1999).

Experiment: Chemiluminescence on heating
Experimental: (b) Synthesis of 4-(p-Fluorophenylthio)-4-(3-pivaloyloxyphenyl)spiro[1,2-dioxetane-3,2'tricyclo[3.3.1.1^3,7 ]decane] (4). A small photooxygenation apparatus was charged with 54 mg (0.12 mmol) of the vinyl sulfide, 150 mg of polymer-bound Rose Bengal, and 25 mL of CH2 Cl2 dried over MgSO4. The resulting solution was then cooled to -78° C. with oxygen bubbling through it. After several minutes, the reaction mixture was irradiated with a 1000 W sodium lamp for 3.5 hours.
4-(3-t-Butyldimethylsilyloxyphenyl)-4-methoxyspiro[1,2-dioxetane-3,2'-tricyclo-[3.3.1.1^3,7 ]decane]. […] A 152 mg portion (1 mmol) of t-butyldimethylsilyl chloride was added to a solution of imidazole (69 mg, 1 mmol) in 2 mL of CH2 Cl2 causing formation of a white precipitate. The mixture was filtered and the supernatant transferred into a solution containing 285 mg (0.94 mmol) of dioxetane 6 in 1 mL of CH2 Cl2. After standing for 1 h, the solution was filtered, washed with 2×1 mL of water, dried and evaporated.
4-(3-t-Butyldiphenylsilyloxyphenyl)-4-methoxyspiro[1,2-dioxetane-3,2'-tricyclo-[3.3.1.1^3,7 ]decane]. […] A.950 mg portion (3.45 mmol) of t-butyldiphenylsilyl chloride was added to a solution of imidazole (236 mg, 3.47 mmol) in 25 mL of CH2 Cl2 causing formation of a white precipitate. The mixture was filtered and 0.99 g (3.3 mmol) of dioxetane 6 was added to the supernatant. […]

CC(C)(C)C(=O)Oc1cccc(C2(Sc3ccc(F)cc3)OOC23C2CC4CC(C2)CC3C4)c1 (stereo not shown) [Dioxetane 4, 4-(p-Fluorophenylthio)-4-(3-pivaloyloxyphenyl)spiro[1,2-dioxetane-3,2'tricyclo-[3.3.1.1^3,7]decane]]
chemiluminescence on heating: emitted light when a sample was heated on a TLC plate
